“And” between values parts separate entries of the source, which are not always exact repeats. Identical values can stand only once. Screen size: about 94,000 compounds; about 6,200 (6.6%) were called active. Inconclusive results, whose numbers are uncertain, are shown with a selection of clear calls. Calls follow the shape of the dose curve; as a rule, active = well fitted inhibition curve with a large enough effect; inconclusive = small, poorly fitted or top-dose-only effect; inactive = flat fitted curve, though single readings scatter. Potencies of inconclusive entries are doubtful fits and often do not repeat.
assay: Cytotoxic Profiling in HEK 293 Cell Line of Diverse Libraries Using Quantitative High-Throughput Screening; settings: HEK 293 viability, ATP luminescence (CellTiter-Glo), 48-72 h; activity change, negative = cytotoxicity: at 115 µM (top of the series) unless noted; series mostly up to 115 µM; also: nearly all actives have a fitted effect of over 60% in size
Procedure, shortened: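 HEK 293 cells seeded at 250 cells/well were exposed to compound for 48 or 72 hr at 37 degree Celsius. Viability taken as ATP content by CellTiter-Glo luminescence.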
% is scaled to controls: 0 for no effect and ±100 for the full control effect; potency is read from the fitted curve at half-maximal effect; tags tell the direction and shape of the fitted curve.

SMILES | Potency | activity change, negative = cytotoxicity | outcome
Cc1ccc(C(=O)N2CCCn3cc(-c4cccc(C#N)c4)nc32)cn1 | inconclusive: 25.1 µM [inhibitor, full curve] |  | 
C=C(C)CN(CC)C(=O)c1c(C)oc2c1CN(Cc1cccc(F)c1)CC2 | inconclusive: 79.4 µM [inhibitor, partial curve] |  | 
O=C1NCc2ccccc2CC12CCN(Cc1ccc(Br)cc1)C2 (stereo unspecified) | inconclusive: 44.7 µM [inhibitor, partial curve] |  | 
CCn1nc(C)c(CNC(=O)c2cc(COc3ccc4ncccc4c3)on2)c1C | inconclusive: 22.4 µM [inhibitor, full curve] |  | 
Cc1ccc(-c2ccccc2CN2CCN(C(=O)c3cccc(Cl)c3)CC2)cc1Cl | inconclusive: 50.1 µM [inhibitor, partial curve, poor fit] |  | 
C=CCOc1c(OC)ccc2c1CN(C1CCCC1)C(=O)CCN2CC(O)Cc1ccccc1 (stereo unspecified) | active: 44.7 µM |  | 
O=C(Nc1cccc(C(F)(F)F)c1)c1nnn2c1CN(Cc1ccccc1F)C(=O)CC2 | inconclusive: 70.8 µM [inhibitor, partial curve] |  | 
O=C(NCc1nc(-c2cccc(F)c2)c(-c2ccccn2)[nH]1)[C@@H]1CCCN1 | inconclusive: 44.7 µM [inhibitor, partial curve, poor fit] |  | 
CCC(C)C1=NS(=O)(=O)c2cc(NC(=O)C(C)C)ccc2N1c1ccccc1 (stereo unspecified) |  | inactive: -21% | 
O=C(c1ccc(Cl)cc1)N1CCc2sc(C(=O)N3CCOCC3)cc2C1 | inconclusive: 39.8 µM [inhibitor, partial curve, poor fit] |  | 
COc1ccc(NC(=O)Nc2cccc(-c3ccc(N4CCOCC4)nn3)c2)cc1F | inconclusive: 17.8 µM [inhibitor, full curve, poor fit] |  | 
CN(C)c1ccc2nnc(-c3cc(C(=O)NCc4ccccc4)ccn3)n2n1 | inconclusive: 89.1 µM [inhibitor, partial curve] |  | 
CCc1ccc(C2CC(C(=O)NCc3ccco3)CN(C(C)=O)C2)cc1 (stereo unspecified) | inconclusive: 89.1 µM [inhibitor, single point] |  | 
O=[S+]([O-])(c1ccccc1)N1CC2(COCCN(c3nccc(C(F)(F)F)n3)C2)C1 | active: 89.1 µM |  | 
CC(C)NC(=O)c1ccc2oc(-c3ccncc3Cl)nc2c1 | inconclusive: 89.1 µM [inhibitor, single point] |  | 
CC(C)CC(NC(=O)C1=NNC(=O)CC1)c1nnc2n1CCNCC2 (stereo unspecified) |  | inactive: -4.59% | 
COc1ccc(F)cc1-c1cccc(C(=O)NCCNC(=O)c2ccc(F)cc2)c1 | active: 35.5 µM |  | 
Cc1cc(=O)n(CC(=O)Nc2cccc(C(C)C)c2)c(N2CCc3ccccc3C2)n1 | inconclusive: 20 µM [inhibitor, full curve, poor fit] |  | 
Cc1ccc2nc(C3CCN(Cc4cccc(-c5cccnc5)c4)CC3)[nH]c(=O)c2c1 | inactive and inconclusive: 44.7 µM [inhibitor, partial curve, poor fit] |  | 
C[C@H]1CN(C(=O)Cc2ccccc2)C[C@@H]1c1nc(-c2ccncc2)no1 | inconclusive: 100 µM [inhibitor, single point] |  | 
COc1cccc(-c2cc(C(=O)NCC3CC3)c3cnn(C)c3n2)c1 | inconclusive: 70.8 µM [inhibitor, partial curve, poor fit] |  | 

SMILES | Potency | activity change, negative = cytotoxicity | outcome
O=C(Nc1ccccc1F)C1CCCN(Cc2cccc(-c3ccc(F)cc3F)c2)C1 (stereo unspecified) | inconclusive: 56.2 µM [inhibitor, partial curve, poor fit] |  | 
COc1cccc(CC(=O)N2CCC(n3cc(-c4nc(-c5ccccc5)no4)nn3)CC2)c1 | active: 31.6 µM |  | 
C=CCNC(=O)c1cccc2c(C)nnn12 |  | inactive: -15.5% [at 230 µM] | 
O=C(CCC1CCCC1)N1CCc2nn(Cc3ccccc3)c(=O)n2CC1 | inconclusive: 56.2 µM [inhibitor, partial curve, poor fit] |  | 
COc1ccccc1-c1noc(-c2nc(-c3ccncc3)no2)n1 |  | inactive: -2.3% | 
Cn1c(=O)[nH]cc(CC(=O)N2C[C@@H](C(=O)O)[C@H](c3ccncc3)C2)c1=O | inconclusive: 11.2 µM [inhibitor, partial curve, poor fit] |  | 
COCCO[C@H]1C(=O)N(C2CCN(C(=O)c3ocnc3C)CC2)[C@H]1c1ccncc1 |  |  | inactive
Cc1cccc(C)c1OCc1cc(C(=O)N(C)CCCC2CCCC2)no1 | inconclusive: 79.4 µM [inhibitor, partial curve, poor fit] |  | 
O=C(O)Cn1nc(C2CCOCC2)nc1CC1NC(=O)NC1=O (stereo unspecified) | inconclusive: 7.94 µM [inhibitor, full curve, poor fit] |  | 
COc1ccc(CCNC(=O)c2nc3cccnc3n(CCc3ccccc3)c2=O)cc1 | inconclusive: 50.1 µM [inhibitor, partial curve, poor fit] |  | 
Cn1cccc1C(=O)N1CC(c2nc(CCOCC3CCCC3)no2)C1 | inconclusive: 31.6 µM [inhibitor, full curve] |  | 
Cc1cccc(-c2cccc(CN3CCC(NC(=O)C4CCCC4)CC3)c2)c1 |  |  | inactive
Cc1ccn(CC(=O)N2CCCC(CCc3ccccc3C)C2)n1 (stereo unspecified) | inconclusive: 22.4 µM [inhibitor, full curve] |  | 
C#CCN(C)C[C@@H]1C=C(C)[C@H](Cc2nnc(-c3ccccc3F)o2)C[C@H]1C(C)C | active: 79.4 µM |  | 
CC(C)CN1C[C@@H](C(=O)O)C[C@@H](C(=O)NCc2ccccn2)C1 |  | inactive: -12.5% | 
COCCN1Cc2nc(OCc3ccc(F)cc3)ccc2OCC1=O | inconclusive: 100 µM [inhibitor, partial curve] |  | 
CCOCCNC(=O)C1CCCN1C(=O)c1cccc(-c2cccc(OC)c2)c1 (stereo unspecified) |  | inactive: -28.6% | 
CC(=O)N1CCNc2cc(Nc3cccc(N(C)C)c3)ncc2C1 | inconclusive: 56.2 µM [inhibitor, full curve] |  | 
CC1(C)[C@H](Cc2cc(CN3CCCCC3)on2)C[C@@H]1NC(=O)c1ccccc1 | inconclusive: 63.1 µM [inhibitor, partial curve, poor fit] |  | 
CCc1noc(-c2nc(-c3ccc(F)c(Br)c3)no2)n1 | inconclusive: 63.1 µM [inhibitor, partial curve, poor fit] |  | 
CN(C)c1cccc(Oc2nnnn2[C@H]2CO[C@H]3[C@@H]2OC[C@@H]3NS(=O)(=O)c2ccccc2C#N)c1 | inconclusive: 56.2 µM [inhibitor, partial curve, poor fit] |  | 

SMILES | Potency | activity change, negative = cytotoxicity | outcome
O=C(c1ccco1)N1C[C@@H]2C(CN(CC#Cc3ccccc3)C3CC3)[C@@H]2C1 (stereo partly specified) | inconclusive: 89.1 µM [inhibitor, single point] |  | 
O=C(c1ccc(F)cc1)N1CCC2(C1)C(=O)N(CCc1ccccc1)c1ccccc12 (stereo unspecified) | active: 39.8 µM and inconclusive: 39.8 µM [inhibitor, full curve, poor fit] |  | 
O=C(NCc1cccc(Cl)c1)c1ccc(Cn2ccn3nc4c(c3c2=O)CCCC4)cc1 | inconclusive: 10 µM [inhibitor, full curve, poor fit] |  | 
Cc1ccc2[nH]c(=O)c(CCC(=O)NC3CCN(Cc4ccccc4)CC3)cc2c1 |  | inactive: -26.8% | 
O=C(NC1CCN(c2ccnc3ccnn23)C1)c1ccc2c(c1)OCO2 (stereo unspecified) | inconclusive: 35.5 µM [inhibitor, partial curve, poor fit] |  | 
CC(=O)N1CCCN(c2ncnc3c2CN(C2CCCC2)C(=O)CN3C)CC1 |  | inactive: 2.06% | 
Cn1ncc2c(C(=O)Nc3ccccc3Cl)cc(-c3ccc(C(F)(F)F)cc3)nc21 | inconclusive: 89.1 µM [inhibitor, single point] |  | 
NC(=O)c1ccc(S(=O)(=O)N2CC[C@@H](CC(=O)O)[C@@H](CC3=NCCc4ccccc43)C2)cc1 |  |  | inactive
Cc1cc(S(=O)(=O)NCCc2noc(-c3ccccc3)n2)ccc1Cl | inconclusive: 50.1 µM [inhibitor, partial curve, poor fit] |  | 
COc1ccc([C@H]2C[C@@H](O)[C@@H](O)[C@@H]2NC(=O)Nc2ccc(C(F)(F)F)cc2)cc1 | inconclusive: 17.8 µM [inhibitor, full curve, poor fit] |  | 
Cc1noc(-c2ccccc2Cl)c1C(=O)N1CCC(Cc2ccccc2)CC1 | inconclusive: 35.5 µM [inhibitor, partial curve, poor fit] |  | 
O=C(Nc1ccc2c(N3CCCC3)ncnc2c1)c1ccc(Br)cc1 | inconclusive: 79.4 µM [inhibitor, partial curve, poor fit] |  | 
CN(Cc1ccccc1)C(=O)c1ccc(N2CC3CC(C2)[C@H]2CCCC(=O)N2C3)nc1 (stereo partly specified) |  | inactive: 11.9% | 
Cc1nc(-c2ccc(F)cc2)n(CC(=O)Nc2cc(C(F)(F)F)ccc2Cl)c(=O)c1CCO | active: 31.6 µM |  | 
CC(=O)Nc1ccc(C(=O)NC[C@@H]2C=C(C)[C@H](Cc3nnc(-c4ccccc4F)o3)C[C@H]2C(C)C)cc1 | active: 28.2 µM |  | 
COc1ncccc1-c1cnc2n[nH]c(-c3ccc(F)cc3C)c2n1 | inconclusive: 100 µM [inhibitor, partial curve, poor fit] |  | 
Cn1cc(CN2CCn3c(nnc3[C@@H]3C[C@@H](O)CN3Cc3ccccc3)C2)c2ccccc21 | inconclusive: 79.4 µM [inhibitor, partial curve, poor fit] |  | 
CC(=O)Nc1ccc(CNC[C@H]2Cn3cc(-c4ccc(C)cc4)nc3CO2)cc1 | inconclusive: 126 µM [inhibitor, single point] |  | 
CC(C)c1nc2nccc(-c3cc4ccccc4o3)n2n1 | inconclusive: 50.1 µM [inhibitor, partial curve, poor fit] |  | 
